Data: PubChem BioAssay AID1347165 (National Center for Advancing Translational Sciences (NCATS), 2019)
About 5,700 (2.6%) of roughly 220,000 compounds were called active. The shares of active, inactive and inconclusive entries below differ from those in the screen. Calls come from the whole dose curve; as a rule, active = well fitted inhibition curve with a large enough effect; inconclusive = small, poorly fitted or top-dose-only effect; inactive = no such curve, though single readings can be large or run the other way. Potencies of inconclusive entries are doubtful fits and often do not repeat.

Target: Lysine-specific demethylase 5B (Homo sapiens) (UniProt Q9UGL1)
Assay: Primary screen for KDM5B Histone Demethylases FDH-coupled qHTS; note: nearly all actives have a fitted effect of over 70% in size
Conditions: FDH-coupled NADH fluorescence (FDH is formaldehyde dehydrogenase); series mostly up to 57.7 µM
How it was run: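 Coupled FDH/NAD⁺ fluorescence readout. KDM5BΔAP 200 nM final; compound titration, 10 min RT preincubation; substrate mix 12.5 µM H3K4me3, 25 µM 2-OG, 50 µM Fe(II), 100 µM ascorbate, 0.25 mM NAD⁺, 0.25 U/mL FDH; ΔRFU over 30 min.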
Potency is the fitted concentration of half-maximal effect; tags give direction and shape of the fitted curve.

Chain of UniProt Q9UGL1 (Q9UGL1 whole entry, looked up): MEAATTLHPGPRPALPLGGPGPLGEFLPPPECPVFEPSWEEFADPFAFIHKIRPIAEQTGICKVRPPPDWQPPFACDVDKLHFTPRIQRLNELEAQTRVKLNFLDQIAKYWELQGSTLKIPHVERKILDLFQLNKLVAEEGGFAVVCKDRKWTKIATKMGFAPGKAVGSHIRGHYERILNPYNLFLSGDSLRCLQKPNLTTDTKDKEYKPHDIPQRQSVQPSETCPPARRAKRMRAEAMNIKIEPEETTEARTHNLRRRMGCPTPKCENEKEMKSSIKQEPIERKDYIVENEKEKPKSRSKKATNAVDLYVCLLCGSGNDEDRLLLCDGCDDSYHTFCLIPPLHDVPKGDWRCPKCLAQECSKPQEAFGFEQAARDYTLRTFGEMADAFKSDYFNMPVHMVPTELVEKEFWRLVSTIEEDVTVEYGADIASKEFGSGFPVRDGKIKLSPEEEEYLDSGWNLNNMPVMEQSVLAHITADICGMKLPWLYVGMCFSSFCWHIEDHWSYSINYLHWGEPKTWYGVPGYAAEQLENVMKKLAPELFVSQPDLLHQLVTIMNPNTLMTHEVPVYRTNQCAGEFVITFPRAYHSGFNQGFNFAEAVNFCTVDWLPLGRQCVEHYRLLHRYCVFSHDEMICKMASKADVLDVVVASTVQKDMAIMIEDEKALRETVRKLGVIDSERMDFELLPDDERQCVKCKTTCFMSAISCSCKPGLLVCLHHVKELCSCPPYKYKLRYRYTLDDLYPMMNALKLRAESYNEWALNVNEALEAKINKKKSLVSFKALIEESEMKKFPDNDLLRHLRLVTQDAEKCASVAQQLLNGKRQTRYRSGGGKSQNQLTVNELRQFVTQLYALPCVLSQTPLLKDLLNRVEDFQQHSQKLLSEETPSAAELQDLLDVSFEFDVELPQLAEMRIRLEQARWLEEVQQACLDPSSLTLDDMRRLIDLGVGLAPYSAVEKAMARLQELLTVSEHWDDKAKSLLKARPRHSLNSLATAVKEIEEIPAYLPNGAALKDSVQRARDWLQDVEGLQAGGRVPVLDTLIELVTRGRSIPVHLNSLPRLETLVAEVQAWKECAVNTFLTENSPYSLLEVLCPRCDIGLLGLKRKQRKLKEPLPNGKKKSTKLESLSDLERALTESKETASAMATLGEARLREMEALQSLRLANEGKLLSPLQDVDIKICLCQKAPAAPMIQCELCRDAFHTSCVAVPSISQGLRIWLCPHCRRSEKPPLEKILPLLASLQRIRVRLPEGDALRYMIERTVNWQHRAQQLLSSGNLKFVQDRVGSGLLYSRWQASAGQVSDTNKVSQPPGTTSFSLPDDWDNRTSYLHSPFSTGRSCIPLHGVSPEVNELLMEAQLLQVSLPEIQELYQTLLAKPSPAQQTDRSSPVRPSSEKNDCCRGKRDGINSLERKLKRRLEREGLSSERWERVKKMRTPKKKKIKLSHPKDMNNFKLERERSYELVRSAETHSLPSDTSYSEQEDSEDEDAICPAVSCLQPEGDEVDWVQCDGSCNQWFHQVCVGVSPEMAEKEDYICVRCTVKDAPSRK

Row | SMILES | Potency
1 | CC(C)OCCC(=O)N1CCCC(CN2CCN(c3ccccn3)CC2)C1 (stereo not drawn) | inactive
2 | Clc1cccc(-c2noc(-c3ccc(NCC4COCCO4)nc3)n2)c1 (stereo not drawn) | inconclusive: 10 µM [inhibitor, partial curve, poor fit]
3 | COc1cccc(Cn2c(=O)c3sccc3n(CC(=O)N(C)C3CCCCC3)c2=O)c1 | inconclusive: 39.8 µM [inhibitor, single point]
4 | CCOc1ccc(N(C(=O)CC(C)C)S(=O)(=O)c2ccc3c(c2)oc(=O)n3C)cc1 | inconclusive: 2.51 µM [inhibitor, full curve, poor fit]
5 | O=C(CNC(=O)c1ccccc1)NCc1nnc2ccc(-c3ccccc3)nn12 | active: 31.6 µM
6 | O=C(O)c1nn(CC2CC2)c2c1CN(C(=O)c1nccc3ccccc13)CC2 | inconclusive: 3.55 µM [inhibitor, partial curve, poor fit]
7 | CCS(=O)(=O)N1CCc2cc(C(=O)Nc3ccc(OC)c(Cl)c3)ccc21 | inconclusive: 39.8 µM [inhibitor, single point]
8 | CN(CCOc1ccccc1Cl)C(=O)c1cc2ccccc2oc1=O | inactive
9 | COc1ccc(CN2CCc3oc(C)c(C(=O)NC(C)Cn4ccc(C)n4)c3C2)cc1 (stereo not drawn) | inconclusive: 14.1 µM [inhibitor, partial curve, poor fit]
10 | CCCCCCCCc1ccc(-c2ccc(C(=O)OC(C)C(=O)OC(C)C)cc2)cc1 (stereo not drawn) | inactive
11 | O=C(Nc1nc2ccc(S(=O)(=O)N3CCCC3)cc2s1)c1cccc(F)c1 | inconclusive: 2.51 µM [inhibitor, full curve, poor fit]
12 | COc1ccc(-n2c(SCC(=O)Nc3ccc(Cl)c(C)c3)nc3n[nH]c(C)c3c2=N)cc1 | inconclusive: 25.1 µM [inhibitor, partial curve, poor fit]
13 | COc1ccc(-c2nnsc2C(=O)NCCC(C)C)cc1 | inactive
14 | CCOC(=O)c1c(NC(=O)c2ccc(S(=O)(=O)N3CCC(C)CC3)cc2)sc2c1CCN(C)C2 | inconclusive: 35.5 µM [inhibitor, partial curve, poor fit]
15 | COCc1cc(=O)n(CC(=O)Nc2cc(C)cc(C)c2)c(N2CCOCC2)n1 | inconclusive: 17.8 µM [inhibitor, partial curve, poor fit]
16 | CSc1ccc(CNC(=O)c2ccc3c(c2)N(C)C2CCCCCN2C3=O)cc1 (stereo not drawn) | inconclusive: 20 µM [inhibitor, partial curve, poor fit]
17 | N#Cc1cccc(NC(=O)CCCNC(=O)C2CC2)c1 | inactive
18 | COCCN(CCOC)c1ncnc2c1c(-c1ccccc1)cn2-c1cccc(C)c1 | inconclusive: 35.5 µM [inhibitor, single point]
19 | CC(C)C(=NNC(=O)c1ccc(Br)cc1)C(C)C | inactive
20 | Cc1ccc2[nH]c3c(c2c1)CCCC3NC(N)=O (stereo not drawn) | inconclusive: 22.4 µM [inhibitor, single point]
21 | O=C(c1ccccc1Cl)N1CCC(N2CCCNC2=O)CC1 | inactive
22 | COc1cccc(-c2cc3c(=O)n(CCNC(=O)Cc4ccc(F)cc4)ccn3n2)c1 | inactive

Row | SMILES | Potency
23 | CC(=O)N1C[C@@H]2CCCN3CCC[C@@H]([C@H]23)[C@H]1CCCC(=O)NCc1ccc(C)o1 | inconclusive: 22.4 µM [inhibitor, partial curve, poor fit]
24 | Cc1ccc(-n2cccn2)c(CN2CCCC(CCC(=O)Nc3ccccc3F)C2)c1 (stereo not drawn) | inactive
25 | O=C(NCCc1c[nH]c2ccccc12)C1CC(=O)N(c2n[nH]c3cccc(F)c23)C1 (stereo not drawn) | inconclusive: 35.5 µM [inhibitor, single point]
26 | CN(C)C(=O)c1cc2c(s1)CCC(C(=O)N1CCN(c3ccccn3)CC1)C2 (stereo not drawn) | active: 28.2 µM
27 | CC(=O)Nc1ccc(NC(=O)c2ccc3ccn(C)c3c2)cc1 | inactive
28 | COc1ccc(CNC(=O)c2ccc(C3Nc4ccccc4S(=O)(=O)N3)cc2)c(OC)c1 (stereo not drawn) | inconclusive: 10 µM [inhibitor, partial curve, poor fit]
29 | COC(=O)c1c(NC(C)=O)c2cc(NC3CCCCCC3)cnc2n1CC1CCCO1 (stereo not drawn) | inconclusive: 28.2 µM [inhibitor, partial curve, poor fit]
30 | Cc1ccc(-c2nc(C)c(CCNC(=O)c3ccco3)s2)cc1 | inconclusive: 31.6 µM [inhibitor, partial curve, poor fit]
31 | CC(=O)N1CCCC1C(=O)Nc1ccc(-c2nc3ccccc3o2)cc1 (stereo not drawn) | active: 28.2 µM
32 | O=C(CSC1=Nc2ccccc2C2=NC(CC(=O)NC3CCCCC3)C(=O)N12)Nc1ccc(F)cc1 (stereo not drawn) | inconclusive: 39.8 µM [inhibitor, partial curve, poor fit]
33 | COc1ccc(-c2nc3sc(CCNC(=O)c4cc(OC)c(OC)c(OC)c4)c(C)n3n2)cc1 | inconclusive: 5.62 µM [inhibitor, partial curve, poor fit]
34 | Cc1c(C(=O)N2CCN3C(=O)CNC(=O)C3C2)cnn1-c1ccccn1 (stereo not drawn) | inconclusive: 10 µM [inhibitor, partial curve, poor fit]
35 | COc1ccc(NC(=O)c2ccccc2NC(=O)CSc2nc3ccc(C)cc3[nH]2)cc1 | inactive
36 | Nc1nc2c(c(=O)[nH]1)CCN(C(=O)CC(c1ccccc1)c1ccco1)C2 (stereo not drawn) | active: 17.8 µM
37 | CCN1c2cc(C(=O)N3CCC(C(N)=O)CC3)ccc2C(=O)N2CCCCCC21 (stereo not drawn) | inconclusive: 28.2 µM [inhibitor, partial curve, poor fit]
38 | CC(C)Cc1nc2cccnc2n1C1CCN(S(=O)(=O)c2ccc3c(c2)CCCC3)CC1 | inactive
39 | NC(=O)c1ccc(CNC(=O)c2ccccc2Nc2ccccc2)cc1 | inactive
40 | COCCC1(CO)CCCN(Cc2cc(Cl)cc(OC)c2OC)C1 (stereo not drawn) | inactive
41 | CCC(=O)N1CCN(c2nc3c(s2)CN(C(=O)CC)CC3)CC1 | inconclusive: 28.2 µM [inhibitor, partial curve, poor fit]
42 | Cc1nnc(SCc2ccc(Cl)cc2)c2cc3occc3n12 | inconclusive: 12.6 µM [inhibitor, partial curve, poor fit]
43 | Cc1c(CC(=O)NCCc2ccc(Cl)cc2)c(=O)oc2c(C)c(O)ccc12 | inconclusive: 7.08 µM [inhibitor, full curve, poor fit]
